# Reference: PMC4336329 (PLoS ONE, 2015)
# Out of some 310,000 compounds screened, about 14,000 (4.5%) showed an effect of 50% or more. The effect is printed as a negative number. This is one part of the list.
# Target: human ether-à-go-go-related gene (hERG) potassium channel (human, UniProt Q12809)
# Experiment: primary screen, population patch clamp on CHO cells stably expressing hERG
# 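Note: peak tail current of the secondary pulse compared with the same well before compound.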
# human ether-à-go-go-related gene (hERG) potassium channel, sequence (Q12809 whole entry, looked up): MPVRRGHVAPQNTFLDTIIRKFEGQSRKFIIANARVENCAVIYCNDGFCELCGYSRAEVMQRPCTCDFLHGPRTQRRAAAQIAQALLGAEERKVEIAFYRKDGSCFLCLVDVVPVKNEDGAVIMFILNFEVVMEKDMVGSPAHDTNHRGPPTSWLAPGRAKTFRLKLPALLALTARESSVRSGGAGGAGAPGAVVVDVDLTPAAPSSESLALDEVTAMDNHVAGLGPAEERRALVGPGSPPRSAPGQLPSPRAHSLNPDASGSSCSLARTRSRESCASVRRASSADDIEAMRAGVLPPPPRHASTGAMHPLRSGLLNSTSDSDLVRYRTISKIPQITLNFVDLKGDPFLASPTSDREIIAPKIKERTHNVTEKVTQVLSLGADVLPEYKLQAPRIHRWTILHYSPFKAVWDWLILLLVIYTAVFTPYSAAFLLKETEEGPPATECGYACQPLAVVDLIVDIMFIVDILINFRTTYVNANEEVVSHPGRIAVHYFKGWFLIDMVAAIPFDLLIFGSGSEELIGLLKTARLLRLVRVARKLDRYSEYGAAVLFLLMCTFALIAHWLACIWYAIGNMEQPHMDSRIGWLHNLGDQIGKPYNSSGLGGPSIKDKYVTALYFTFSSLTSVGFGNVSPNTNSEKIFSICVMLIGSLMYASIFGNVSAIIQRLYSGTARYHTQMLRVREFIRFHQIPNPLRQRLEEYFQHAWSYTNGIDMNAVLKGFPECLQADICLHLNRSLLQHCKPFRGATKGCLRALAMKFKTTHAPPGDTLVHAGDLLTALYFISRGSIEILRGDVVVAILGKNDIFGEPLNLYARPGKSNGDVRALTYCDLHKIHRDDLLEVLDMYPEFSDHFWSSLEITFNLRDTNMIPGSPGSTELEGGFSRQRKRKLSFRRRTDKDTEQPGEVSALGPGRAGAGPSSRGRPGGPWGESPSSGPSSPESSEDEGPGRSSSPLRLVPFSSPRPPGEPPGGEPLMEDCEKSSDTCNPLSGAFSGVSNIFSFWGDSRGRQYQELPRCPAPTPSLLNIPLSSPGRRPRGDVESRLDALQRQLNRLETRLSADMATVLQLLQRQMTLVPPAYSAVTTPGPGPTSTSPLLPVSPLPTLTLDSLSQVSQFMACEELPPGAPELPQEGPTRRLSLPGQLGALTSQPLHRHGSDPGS
row,SMILES,"hERG current change (%, negative = inhibition) at 10uM [%]"
1,COc1cc2ccccc2cc1C(=O)Nc1ccncc1,-24.8
2,Cc1cc(C)cc(COn2ccnc2)c1,-14.1
3,CCC(C)NC(=O)C(NS(=O)(=O)c1cccc2nsnc12)c1ccccc1 (stereo not drawn),5.97
4,CN(C)C(=O)Nc1ccccc1,13.6
5,O=C1NC(=O)/C(=C/c2ccccc2Oc2ccc(Cl)cc2)S1,0.787
6,COc1cccc(CC(=O)OCC(=O)NCC(=O)Nc2cccc(C)c2C)c1,15.6
7,NC(=O)c1cc(NC(=O)CCCc2nc3ccccc3s2)cc(C(N)=O)c1,20.3
8,CCC(CC)c1nnc(NC(=O)C2CCN(C(=O)c3ccco3)CC2)s1,20.1
9,Cc1cc(CN(C)C(=O)c2cc(COc3ccc(F)cc3Cl)on2)n[nH]1,-2.22
10,Nc1nc(NCc2ccco2)nc(NC2CCCCC2)c1[N+](=O)[O-],8.97
11,Cc1ccsc1C(=O)N/N=C/c1ccc([N+](=O)[O-])cc1,11.2
12,COc1ccc(C(C)=O)cc1CSc1ccc(S(=O)(=O)N2CCOCC2)cn1,-24.8
13,CCc1ccc(NC(=O)CSc2ccc(-c3sc(C)nc3C)nn2)cc1,7.98
14,O=C(c1ccc(-c2ccccc2)cc1)C1CCCN(C(=O)c2ccncc2)C1 (stereo not drawn),-13.4
15,Cc1ccc(C)c(NC(=O)Cc2coc3cc4c(cc23)CCC4)c1,14.4
16,CCCOC(=O)c1ccc(NC(=O)c2cc(=O)[nH]c3ccccc23)cc1,-6.74
17,CCOc1ccc(OC(=O)NC(c2ccccc2)C(Cl)(Cl)Cl)cc1 (stereo not drawn),-4.18
18,Cc1ccc(Sc2ncnc(N)c2[N+](=O)[O-])cc1,11
19,COc1cccc(NC(=O)N2CCCC2C(=O)NC23CC4CC(CC(C4)C2)C3)c1 (stereo not drawn),9.5

row,SMILES,"hERG current change (%, negative = inhibition) at 10uM [%]"
1,CC1(C)C(=O)OC(c2cccc([N+](=O)[O-])c2)C2(CCCCC2)C1=O (stereo not drawn),6.37
2,CS/C(N)=N/C(=S)Nc1cccc(Cl)c1,-0.719
3,O=C(NCc1ccco1)/C(=C/C=C/c1ccccc1)NC(=O)c1ccco1,-36.4
4,Cn1cnnc1SCC(=O)NNC(=O)c1ccc(Cl)cc1,12.6
5,CN1C2CCC1CC(NC(=O)c1cc(S(=O)(=O)N(C)C)c(Cl)cc1Cl)C2 (stereo not drawn),-7.53
6,O=C(CC(C(=O)O)c1ccc(Cl)cc1)c1ccc(Br)cc1 (stereo not drawn),9.1
7,Cc1cc(C)c2cc(C#N)c(N3CCCN(C(=O)c4cnccn4)CC3)nc2c1,-4.24
8,CC(NC(=O)COc1cccc(Br)c1)C(=O)O (stereo not drawn),1.61
9,CN1C(=O)NC(=O)C2(Cc3ccccc3N3CCOCC32)C1=O (stereo not drawn),22.3
10,O=C1/C(=C/c2ccccn2)SC(=S)N1c1ccc(O)cc1,3.54
11,COC(=O)C1=C(N)N(c2ccc(F)cc2)C2=C(C(=O)CCC2)C1c1ccc2c(c1)OCO2 (stereo not drawn),-5.13
12,CCCn1c(SCC(N)=O)nc2c(c1=O)C1(CCCC1)Cc1ccccc1-2,-16.3
13,COc1ccc(CC(=O)Nc2c(C(=O)N3CCN(c4ccccc4OC)CC3)oc3ccccc23)cc1OC,-24.4
14,O=C(CSc1n[nH]c(=O)[nH]c1=O)Nc1cccc(S(=O)(=O)N2CCOCC2)c1,32.6
15,COc1ccc(NC(=O)c2cc(C)n(Cc3cccs3)c2C)cc1,10.1
16,Cc1ccc(C)c2c1cc(C)c1nnc(SCc3ccccn3)n12,5.05
17,O=S(=O)(c1cccc(F)c1)N1CCN(C(=S)NCc2ccccc2)CC1,-0.89
18,COc1cc(NC2c3ncccc3C(=O)N2Cc2ccco2)cc(OC)c1OC (stereo not drawn),4.45
19,CC(C)Cn1c(CN2C(=O)c3ccccc3C2=O)nc2ccccc2c1=O,16.7

row,SMILES,"hERG current change (%, negative = inhibition) at 10uM [%]"
1,O=C(OC(C(=O)NCc1ccccc1)c1ccccc1)c1ccco1 (stereo not drawn),2.93
2,COc1ccc(C(=O)NC2CCN(S(=O)(=O)c3ccccc3F)CC2)cc1,18.1
3,CC(=O)Nc1nonc1-c1nc2ccccc2n1CCC(C)C,-11
4,CN(C)C(CNC(=O)CCS(=O)(=O)c1ccccc1)c1ccccc1 (stereo not drawn),17.6
5,O=C(CC(NC(=O)c1ccccc1)c1ccccc1)Nc1ccc(F)c(F)c1 (stereo not drawn),25.8
6,Cc1cc(C)n(CC(=O)O)c(=O)c1[N+](=O)[O-],6
7,COc1ccccc1Cn1cccc1C=O,15.7
8,CC(Oc1cccc(Cl)c1)C(=O)N1CCCN(C)CC1 (stereo not drawn),-2.56
9,COc1ccc(NC(=O)CN2CCc3ccccc3C2)c(OC)c1,-6.9
10,Cc1ccc(CNS(=O)(=O)NCc2ccccc2)cc1,12.4
11,O=C(CSc1ccccc1C(=O)NCc1ccccc1)NC12CC3CC(CC(C3)C1)C2,-15.1
12,O=C(CN1CCOCC1)Nc1cccc([N+](=O)[O-])c1,7.21
13,COc1ccc(-c2nnn(CC(=O)N(Cc3ccccc3Cl)C(C(=O)NCC3CCCO3)c3ccco3)n2)cc1 (stereo not drawn),-2.07
14,COCCCNc1nc2c(-c3ccc(C)cc3)nnn2c2ccccc12,12.9
15,CC(C)CN(C(=O)c1ccc(=O)n(C)n1)c1nc2ccccc2s1,-6.96
16,COC(=O)CC(=O)CSc1nc2c(cc1C#N)CCCCC2,1.95
17,CN1CCc2c(sc(NC(=O)c3ccc(S(=O)(=O)N4CCc5ccccc54)cc3)c2C(N)=O)C1.Cl,7.03
18,COc1ccc(NS(=O)(=O)c2ccc(OC)c(N(C)S(=O)(=O)c3ccc(Cl)cc3)c2)cc1,-16.9
19,O=C(O)CCC(NC(=O)c1cncc(O)c1)C(=O)O (stereo not drawn),-4.94
